Assay results taken from PubChem BioAssay AID540317 (National Center for Advancing Translational Sciences (NCATS), 2011).
Out of some 390,000 compounds screened, about 2,200 (0.56%) were called active. The shares of active, inactive and inconclusive entries below differ from those in the screen. Calls follow the shape of the dose curve; as a rule, active = well fitted inhibition curve with a large enough effect; inconclusive = small, poorly fitted or top-dose-only effect; inactive = no such curve, though single readings can be large or run the other way. Potencies of inconclusive entries are doubtful fits and often do not repeat.

molecular target: Chromobox protein homolog 1 (Homo sapiens) (UniProt P83916); experiment: HTS for Inhibitors of HP1-beta Chromodomain Interactions with Methylated Histone Tails; settings: AlphaScreen HP1-beta / biotin-H3K9me3 peptide binding; series mostly up to 114 µM; also: nearly all actives have a fitted effect of over 70% in size
In short: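 HP1-beta protein (50 nM final) preincubated 30 min at room temperature with biotinylated H3(1-18)K9me3 peptide (50 nM) in PBS pH 7.4, 0.01% Tween-20, then compound added for 30 min. AlphaScreen streptavidin donor/nickel chelate acceptor beads (10 ug/mL final), 30 min dark, luminescence read.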
Potency is read from the fitted curve at half-maximal effect; tags tell the direction and shape of the fitted curve.

Sequence of UniProt P83916 (P83916 whole entry, looked up): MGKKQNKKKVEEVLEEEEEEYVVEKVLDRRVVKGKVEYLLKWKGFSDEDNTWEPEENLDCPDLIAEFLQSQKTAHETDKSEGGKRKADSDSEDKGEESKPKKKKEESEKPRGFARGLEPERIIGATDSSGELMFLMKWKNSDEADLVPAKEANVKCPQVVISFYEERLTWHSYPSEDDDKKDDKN

SMILES | Potency
COc1ccc(OC)c(/C=N/n2c(COc3ccccc3)n[nH]c2=S)c1 | inactive
NCCOc1ccccc1Cc1ccccc1 | inactive
CC(NC(=O)Cc1ccc(-c2ccccc2)cc1)c1ccccc1 (stereo unspecified) | inconclusive: 10 µM [inhibitor, full curve, poor fit]
COc1ccc(C(=O)N/C(=C\c2cccc([N+](=O)[O-])c2)C(=O)Nc2cccc(C(=O)O)c2)cc1 | inactive
O=C(Oc1c(CN2CCOCC2)cc(Cl)c2cccnc12)c1ccccc1 | inactive
Cc1c(Cc2ccc3c(c2)OCO3)sc(NC(=O)C2CC2)c1C(N)=O | inactive
CCCc1nc2sc3c(SCC(=O)NCc4ccco4)ncnc3c2c2c1CCC2 | inconclusive: 56.2 µM [inhibitor, single point]
O=C(CN1CCCCCC1)Nc1ccc(F)c(F)c1 | inconclusive: 31.6 µM [inhibitor, partial curve]
O=C(NCc1ccccc1Cl)C1CCN(S(=O)(=O)c2cccs2)CC1 | inactive
CN(C)c1ccc(C(=O)c2ccc(N(C)C)c(N)c2)cc1N | inconclusive: 70.8 µM [inhibitor, partial curve]
CC(C)(C)NC(=O)Cn1nnc(-c2cccs2)n1 | inactive
O=C(Cn1ncc2c(=O)oc3ccccc3c21)NCc1ccccc1Cl | inactive
COc1cc(CNc2ncc(-c3ccc(Br)cc3)n2C)cc(OC)c1OC | inconclusive: 50.1 µM [inhibitor, partial curve, poor fit]
Nc1ccc(Cc2ccc(N)c(O)c2)cc1O | inconclusive: 70.8 µM [inhibitor, partial curve]
CC1CCN(CCOCCOc2ccccc2Br)CC1 | inconclusive: 79.4 µM [inhibitor, partial curve]
CCN1CCCc2cc(CN(CCN3CCOCC3)C(=S)Nc3ccccc3OC)ccc21 | inactive
Nc1nc(=S)ss1 | inconclusive: 11.2 µM [inhibitor, partial curve, poor fit]
CCn1c(SCC(=O)NC2CCCC2)nnc1-c1ccco1 | inactive
CC(C)(C)S(=O)(=O)c1cnc(-c2ccccn2)nc1N | inactive
Cc1cccc(NC(=O)c2ccc3c(O)c(S(=O)(=O)c4ccccc4)c(=O)[nH]c3c2)c1C | inactive
Cc1ccc(C(=O)Nc2ccccc2)cc1S(=O)(=O)Nc1ccc(Br)cc1 | inactive
COc1cc(C(=S)N2CCOCC2)cc(OC)c1OS(=O)(=O)c1ccc(Cl)cc1 | inconclusive: 8.91 µM [inhibitor, full curve]
COc1ccc(-n2c(C)cc(C(=O)COC(=O)Cc3n[nH]c(=O)c4ccccc34)c2C)cc1 | inconclusive: 56.2 µM [inhibitor, partial curve]
CC1(C)CC(=S)Nc2ccccc2S1 | inconclusive: 28.2 µM [inhibitor, partial curve, poor fit]

SMILES | Potency
Cc1cccc(OCCCN2CCCCCC2)c1 | inconclusive: 89.1 µM [inhibitor, single point]
Cc1cc(C)nc(-n2ncc3c2CC(c2cccc(Cl)c2)CC3=O)n1 (stereo unspecified) | inactive
Cc1cc2[nH]c(=O)c(=O)[nH]c2cc1S(=O)(=O)NC1CCCCC1C (stereo unspecified) | inactive
CCCCNC(=S)NCCN1CCCCC1 | inconclusive: 89.1 µM [inhibitor, single point]
NS(=O)(=O)c1ccc(N=Nc2c[nH]c(=O)c(O)c2)cc1 | active: 50.1 µM
COc1ccccc1/C=C/C=N/N1CCN(Cc2ccc(Cl)cc2)CC1 | active: 39.8 µM
O=C(CN1CCN(Cc2ccccc2Cl)CC1)N/N=C/C=C/c1ccco1 | inactive
Cn1cccc1-c1cc(C(=O)N2CCc3c([nH]c4ccccc34)C2c2ccccn2)[nH]n1 (stereo unspecified) | inconclusive: 20 µM [inhibitor, full curve]
COc1cc(OC)c2c(-c3cccc(-c4ccc(N(C)C)cc4)c3)cc(=O)oc2c1 | inconclusive: 12.6 µM [inhibitor, partial curve, poor fit]
Cc1cccc(CN2CCN(C(=O)CN(C)C(C)C(=O)Nc3ccc(C(N)=O)cc3)CC2)c1 (stereo unspecified) | inconclusive: 14.1 µM [inhibitor, partial curve, poor fit]
CCOc1cc(/C=C2\SC(=S)N(Nc3ccccc3)C2=O)ccc1O | active: 50.1 µM
CCc1ccc(S(=O)(=O)c2nnn3c2nc(N2CCOCC2)c2sccc23)cc1 | inconclusive: 6.31 µM [inhibitor, single point]
C=CCc1cccc(C=Nc2c[nH]c(=O)[nH]c2=O)c1O | inactive
N#CC1=C(N)SC(N)=C(C#N)C1c1c(Cl)cccc1Cl | inactive
COc1ccc(S(=O)(=O)Nc2cccc(-c3ccc4nncn4n3)c2)c(OC)c1 | inconclusive: 44.7 µM [inhibitor, partial curve]
Cc1ccnc(NC(=O)c2ccc([N+](=O)[O-])o2)c1 | inactive
COc1ccc(NC(=O)CSc2oc(-c3ccc(F)cc3)nc2S(=O)(=O)c2ccc(C)cc2)c(OC)c1 | inconclusive: 63.1 µM [inhibitor, single point]
Nc1nn(-c2ccccc2)c2ccc([N+](=O)[O-])cc12 | inconclusive: 70.8 µM [inhibitor, partial curve]
CC(C)(C)c1nnc(NC(=O)C2c3ccccc3Oc3ccccc32)s1 | inconclusive: 7.08 µM [inhibitor, full curve, poor fit]
CCCN(CC(=O)Nc1ccccc1OC)Cc1c(O)ccc2ccccc12 | inconclusive: 56.2 µM [inhibitor, single point]
Cc1ccc(NC(=O)Cn2c(=S)[nH]c3ccccc32)cc1 | inconclusive: 7.94 µM [inhibitor, full curve]
O=C(C1CCCN(Cc2ccc3c(c2)OCO3)C1)N1CCCC1 (stereo unspecified) | inconclusive: 39.8 µM [inhibitor, single point]
c1ccc(OCCN2CCOCC2)cc1 | inconclusive: 14.1 µM [inhibitor, partial curve, poor fit]
Cc1ccccc1C(=O)N/N=C1/SCC(=O)N1Cc1ccc2c(c1)OCO2 | inactive

SMILES | Potency
Cc1ccc(CC(=O)Nc2ccc3c(c2)N(C)C(=O)c2ccccc2S3)cc1 | inconclusive: 8.91 µM [inhibitor, partial curve, poor fit]
Cc1ccc(NC(=O)Nc2ccc3c(c2)C(=O)OC3)cc1Cl | inactive
COc1ccc(NC(=O)N2CCCC2C(=O)Nc2ccc(C)c(Cl)c2)cc1 (stereo unspecified) | inconclusive: 3.98 µM [inhibitor, full curve, poor fit]
Cc1[nH]n(-c2ncc(-c3ccc(Cl)cc3)s2)c(=O)c1C(c1ccc(Cl)cc1)C(C#N)C#N (stereo unspecified) | inconclusive: 44.7 µM [inhibitor, partial curve]
O=C(COc1ccccc1)N1CCc2ccccc21 | inactive
CC1=C(C(N)=O)C(c2ccccc2[N+](=O)[O-])n2ncnc2N1 (stereo unspecified) | inconclusive: 28.2 µM [inhibitor, full curve]
CCc1ccc(OCCNc2cc(N3CCNC(C)C3)ccc2[N+](=O)[O-])cc1 (stereo unspecified) | inconclusive: 39.8 µM [inhibitor, partial curve]
O=C1CCCCC1C(=O)c1cn(-c2ccc(Cl)c(Cl)c2)nn1 (stereo unspecified) | inconclusive: 89.1 µM [inhibitor, single point]
N#Cc1nc(COc2cccc(Cl)c2)oc1NCCc1ccccc1 | inconclusive: 15.8 µM [inhibitor, full curve]
O=C(CSc1cccc2cccnc12)Nc1ccc(S(=O)(=O)N2CCOCC2)cc1 | inactive
O=C(CCNS(=O)(=O)c1ccc(Br)s1)NCc1ccccc1Cl | inconclusive: 89.1 µM [inhibitor, single point]
CCCCCCNC(=O)N[C@@H](C(=O)NCCC[C@H]1CN2C(=NC[C@@H]2Cc2ccccc2)N1CCc1cccc(OC)c1)C(C)C | inconclusive: 3.16 µM [inhibitor, full curve, poor fit]
COc1cc(CNc2ccc(N3CCCCC3)cc2)ccc1OCC(=O)NC(C)(C)C | inconclusive: 35.5 µM [inhibitor, partial curve]
O=C1/C(=C\c2ccc(-c3ccccc3Cl)o2)SC(=S)N1CC1CCCO1 (stereo unspecified) | inconclusive: 63.1 µM [inhibitor, partial curve, poor fit]
NC(=O)c1c(NC(=O)C2CC=CCC2C(=O)O)sc2c1CCCCC2 (stereo unspecified) | inconclusive: 39.8 µM [inhibitor, partial curve]
Cc1ccsc1C(=O)OCC(=O)c1cc(C)n(CC2CCCO2)c1C (stereo unspecified) | inconclusive: 56.2 µM [inhibitor, partial curve]
Cc1cc(C(=O)Nc2ccc(N3CCCC3)c(Cl)c2)ccc1[N+](=O)[O-] | inconclusive: 12.6 µM [inhibitor, full curve]
COc1cc(OC)c(C2CC(=O)N3CN(c4ccc(C)cc4)CSC3=C2C#N)cc1OC (stereo unspecified) | inconclusive: 63.1 µM [inhibitor, single point]
CCCCN1C(=O)c2[nH]nc(-c3ccccc3O)c2C1c1ccc(OCc2ccccc2)cc1 (stereo unspecified) | inactive
Cc1ccc([N+](=O)[O-])cc1S(=O)(=O)N1CCC(C)CC1 | inconclusive: 25.1 µM [inhibitor, full curve, poor fit]
CN(C)CCNC(=O)c1ccc2c(c1)NC(=O)C(CS(=O)(=O)Cc1cccc(Br)c1)N2 (stereo unspecified) | inconclusive: 79.4 µM [inhibitor, partial curve, poor fit]
N#Cc1nc(COc2ccc(Br)cc2)oc1N1CCCC1 | inconclusive: 70.8 µM [inhibitor, single point]
CCc1nnc(NC(=O)CSc2nnc(-c3ccccc3O)o2)s1 | inconclusive: 39.8 µM [inhibitor, single point]
